{
  "source": "the supplement of paper PMC10338343",
  "note": "± gives the standard deviation. This is a selection; strong and weak results do not stand in their true shares.",
  "data": [
    {"system": "MIWI (PIWIL1) piRISC loaded with piRNA #1 (30 nt)", "assay": "pre-steady-state target cleavage rate (min^-1); MIWI and MILI are mouse PIWI proteins and EfPiwi is from a freshwater sponge; tags in brackets are library labels; higher = faster piRNA-guided slicing of the target", "conditions": "guide: piRNA #1 5'p-UGAGGUAGUAGGUUGUAUAGUAUCCAGAGG; auxiliary factor: 500 nM mouse GTSF1", "outline": "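A transcribed, DNA-blocked target RNA library (0.1 nM) and 1 nM active affinity-purified piRISC bearing one synthetic guide were incubated in HEPES–potassium acetate buffer at 33 °C for 0–8 or 0–960 min, either with or without 500 nM GTSF1 partner protein. Uncleaved targets were sequenced, normalised to depth and to weakly complementary targets, and pooled over three trials, with k3 capped at 0.0001 min^-1. The pre-steady-state cleavage rate was derived with a burst-and-steady-state fit.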", "values": [
      {"sequence": "GGAGACCAUACUAUACAAGCAACUACCUCA", "pre-steady-state target cleavage rate": "0.0294 ± 0.0054"},
      {"sequence": "GCUCUGGAUUCUAUACAACCUAGUACCUCA", "pre-steady-state target cleavage rate": "0.23 ± 0.035"},
      {"sequence": "GCGCUGGAUACUAUACAACCUACUACCUCA", "pre-steady-state target cleavage rate": "1.85 ± 0.1"},
      {"sequence": "GCUCUGGAUACUAUACAUCCUAGUACCUCA", "pre-steady-state target cleavage rate": "0.466 ± 0.054"},
      {"sequence": "GGACUGGAUACUAUACAACCUACUACCACA", "pre-steady-state target cleavage rate": "0.55 ± 0.056"},
      {"sequence": "CGUCUGGAUACUAUUCAACCUACUACCUCA", "pre-steady-state target cleavage rate": "1.87 ± 0.09"},
      {"sequence": "GGAGUGGAUACUAUACAACCUACUACCUGCA", "pre-steady-state target cleavage rate": "0.549 ± 0.049"},
      {"sequence": "GGAGACCUAACUUUACAACCUACUACCUCA", "pre-steady-state target cleavage rate": "0.373 ± 0.061"},
      {"sequence": "GGUCUGGAUACUAUACAACCUACUACGUGA", "pre-steady-state target cleavage rate": "0.151 ± 0.042"},
      {"sequence": "GGAGACCUAUGAUAUCAACCUACAACCACA", "pre-steady-state target cleavage rate": "< 0.0001"},
      {"sequence": "GGUCUGGAUACUAUACGACCUACUACCUCA", "pre-steady-state target cleavage rate": "1.53 ± 0.098"},
      {"sequence": "GGUCUGGAUACUAUACAACCUACUACCUGCA", "pre-steady-state target cleavage rate": "0.643 ± 0.074"},
      {"sequence": "GGACAGGAUACUAUUCAACCUACUACCUCA", "pre-steady-state target cleavage rate": "1.69 ± 0.11"},
      {"sequence": "GGACUGGAUAAUAUACAACCUACUACCUCA", "pre-steady-state target cleavage rate": "1.55 ± 0.12"},
      {"sequence": "GGAGUGGAUUCUAUACAACCUACUUCCUCA", "pre-steady-state target cleavage rate": "0.0356 ± 0.0079"},
      {"sequence": "GCUCUGGAAUGUAUACAACCUACUACCUCA", "pre-steady-state target cleavage rate": "0.727 ± 0.045"},
      {"sequence": "GGAGAGGAUACUAUACAACGUACUUCCUCA", "pre-steady-state target cleavage rate": "0.02 ± 0.0065"},
      {"sequence": "GGAGUGCAUACUAUACAUCCUACUACCUCA", "pre-steady-state target cleavage rate": "1.51 ± 0.1"},
      {"sequence": "CCUCUGGAUACAAUAGAACCUACUACCUCA", "pre-steady-state target cleavage rate": "0.99 ± 0.065"},
      {"sequence": "GCUCUGGAUACUAUACAACCUACUCCCUCA", "pre-steady-state target cleavage rate": "1.18 ± 0.083"},
      {"sequence": "GGAGAGGAUACUAUACAACGAACUACCUCA", "pre-steady-state target cleavage rate": "0.0206 ± 0.0037"},
      {"sequence": "GGACUGGAUACUAUACAACCAACUACGUCA", "pre-steady-state target cleavage rate": "0.0713 ± 0.0092"},
      {"sequence": "GGAGACGAUACUAUAGAACCUACUACGUCA", "pre-steady-state target cleavage rate": "0.264 ± 0.048"},
      {"sequence": "GGAGACCAUACUAUACAACCUACGUACCUCA", "pre-steady-state target cleavage rate": "0.628 ± 0.041"},
      {"sequence": "GGAGACCAUACUAUACAACCAACUAGCUCA", "pre-steady-state target cleavage rate": "0.0517 ± 0.011"},
      {"sequence": "GGUCUGGUUACUAUACAACCUACUACCUCA", "pre-steady-state target cleavage rate": "1.87 ± 0.11"},
      {"sequence": "GGAGACGAUACUAUACUACCUAGUACCUCA", "pre-steady-state target cleavage rate": "0.315 ± 0.04"},
      {"sequence": "GGAGACGAUACUAUACAACCUCCUACCUCA", "pre-steady-state target cleavage rate": "0.915 ± 0.039"},
      {"sequence": "CCACUGGAUAGUAUACAACCUACUACCUCA", "pre-steady-state target cleavage rate": "0.165 ± 0.026"},
      {"sequence": "GCUCUGGAUACUAAACUACCUACUACCUCA", "pre-steady-state target cleavage rate": "1.08 ± 0.083"},
      {"sequence": "GGAGACGAUUCUAUACAACCUACAACCUCA", "pre-steady-state target cleavage rate": "0.953 ± 0.059"},
      {"sequence": "GGAGACCUAUCUAUACAACCUACUACCUCC [g2:g20:cont:t1C]", "pre-steady-state target cleavage rate": "0.753 ± 0.062"},
      {"sequence": "GGAGACCAUACUAUACAACCUACUACCUGCA", "pre-steady-state target cleavage rate": "1.66 ± 0.15"},
      {"sequence": "GGAGACCUAUCUAUUCAACCUACUAGCUCA", "pre-steady-state target cleavage rate": "0.0859 ± 0.015"},
      {"sequence": "GGAGAGGAUAUCUAUACAACCUACUACCUCA", "pre-steady-state target cleavage rate": "0.726 ± 0.039"},
      {"sequence": "GGAGACCUAACUAUACAACCUACUCACCUCA", "pre-steady-state target cleavage rate": "0.664 ± 0.058"},
      {"sequence": "GGAGACCAUAUUAUACAACCUACUACCUCA", "pre-steady-state target cleavage rate": "1.77 ± 0.15"},
      {"sequence": "GGAGACGAUACUAUAGAAGCUACUACCUCA", "pre-steady-state target cleavage rate": "0.593 ± 0.033"},
      {"sequence": "CCUCUGGAUACUAUACAACCUACUAGCACA", "pre-steady-state target cleavage rate": "0.402 ± 0.069"},
      {"sequence": "GGAGACCUAUCUAUAGAACCUACUUCCUCA", "pre-steady-state target cleavage rate": "0.0185 ± 0.0046"}
    ]}
  ]
}
